Results from the supplement of paper PMC8728848.
The other results are listed elsewhere or left out.

Key:
Assay in all cases: glycan array binding signal (z-score within array); higher = stronger binding
Conditions in all cases: glycan notation: IUPAC condensed, linker removed
[1] = target: Gal3S(b1-4)[Fuc(a1-3)]Glc
Summary of the method: (§1)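 Negative Z-scores can be read as non-binding. The Z-score is calculated within each array and then averaged across arrays of one protein sequence at different concentrations or buffers and across linkers. Arrays, 3228 in all, were curated from the Consortium for Functional Glycomics database and kept only where the protein sequence was available.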

[2] = target: Gal3S(b1-4)[Fuc(a1-3)]Glc6S
Summary of the method: as §1

Gal3S4S(b1-4)GlcNAc = target: Gal3S4S(b1-4)GlcNAc
Summary of the method: as §1

Gal3S6S(b1-4)GlcNAc = target: Gal3S6S(b1-4)GlcNAc
Summary of the method: as §1

Gal3S6S(b1-4)GlcNAc6S = target: Gal3S6S(b1-4)GlcNAc6S
Summary of the method: as §1

Gal4S(b1-4)GlcNAc = target: Gal4S(b1-4)GlcNAc
Summary of the method: as §1

Gal4S6S(b1-4)GlcNAc = target: Gal4S6S(b1-4)GlcNAc
Summary of the method: as §1

Gal6S(b1-3)GlcNAc = target: Gal6S(b1-3)GlcNAc
Summary of the method: as §1

Gal6S(b1-3)GlcNAc6S = target: Gal6S(b1-3)GlcNAc6S
Summary of the method: as §1

Gal6S(b1-4)Glc = target: Gal6S(b1-4)Glc
Summary of the method: as §1

Gal6S(b1-4)Glc6S = target: Gal6S(b1-4)Glc6S
Summary of the method: as §1

Gal6S(b1-4)GlcNAc = target: Gal6S(b1-4)GlcNAc
Summary of the method: as §1

Gal6S(b1-4)GlcNAc6S = target: Gal6S(b1-4)GlcNAc6S
Summary of the method: as §1

GalNAc(a1-3)Gal = target: GalNAc(a1-3)Gal
Summary of the method: as §1

GalNAc(a1-3)GalNAc = target: GalNAc(a1-3)GalNAc
Summary of the method: as §1

[3] = target: GalNAc(a1-3)GalNAc(b1-3)Gal(a1-4)Gal(b1-4)Glc
Summary of the method: as §1

[4] = target: GalNAc(a1-3)GalNAc(b1-3)Gal(a1-4)Gal(b1-4)GlcNAc
Summary of the method: as §1

GalNAc(b1-3)Gal = target: GalNAc(b1-3)Gal
Summary of the method: as §1

[5] = target: GalNAc(b1-3)Gal(a1-4)Gal(b1-4)GlcNAc
Summary of the method: as §1

[6] = target: GalNAc(b1-3)Gal(a1-4)Gal(b1-4)GlcNAc(b1-3)Gal(b1-4)Glc
Summary of the method: as §1

[7] = target: GalNAc(b1-3)Gal(a1-6)Gal(b1-4)Glc
Summary of the method: as §1

GalNAc(b1-3)GalNAc = target: GalNAc(b1-3)GalNAc
Summary of the method: as §1

GalNAc(b1-4)Gal(b1-4)Glc = target: GalNAc(b1-4)Gal(b1-4)Glc
Summary of the method: as §1

GalNAc(b1-4)GlcNAc = target: GalNAc(b1-4)GlcNAc
Summary of the method: as §1

[8] = target: GalNAc(b1-4)GlcNAc(b1-2)Man(a1-3)[GalNAc(b1-4)GlcNAc(b1-2)Man(a1-6)]Man(b1-4)GlcNAc(b1-4)GlcNAc
Summary of the method: as §1

GalNAc(b1-6)GalNAc = target: GalNAc(b1-6)GalNAc
Summary of the method: as §1

Glc(a1-4)Glc = target: Glc(a1-4)Glc
Summary of the method: as §1

[9] = target: Glc(a1-4)Glc(a1-4)Glc(a1-4)Glc
Summary of the method: as §1

Glc(a1-6)Glc(a1-6)Glc = target: Glc(a1-6)Glc(a1-6)Glc
Summary of the method: as §1

[10] = target: Glc(a1-6)Glc(a1-6)Glc(a1-6)Glc
Summary of the method: as §1

Glc(b1-4)Glc = target: Glc(b1-4)Glc
Summary of the method: as §1

Glc(b1-6)Glc = target: Glc(b1-6)Glc
Summary of the method: as §1

GlcA(b1-3)Gal = target: GlcA(b1-3)Gal
Summary of the method: as §1

GlcA(b1-3)GlcNAc = target: GlcA(b1-3)GlcNAc
Summary of the method: as §1

GlcA(b1-6)Gal = target: GlcA(b1-6)Gal
Summary of the method: as §1

[11] = target: GlcNAc(a1-3)Gal(b1-4)GlcNAc
Summary of the method: as §1

[12] = target: GlcNAc(a1-4)Gal(b1-3)GlcNAc
Summary of the method: as §1

[13] = target: GlcNAc(a1-4)Gal(b1-4)GalNAc
Summary of the method: as §1

B1: F17aG (Escherichia coli), Q99003 (protein)
chain: MTNFYKVFLAVFILVCCNISQAAVSFIGSTENDVGPSLGSYSRTHAMDNLPFVYDTRNKIGYQNANVWHISKGFCVGLDGKVDLPVVGSLDGQSIYGLTEEVGLLIWMGDTKYSRGTAMSGNSWENVFSGWCVGANTASTQGLSVRVTPVILKRNSSARYSVQKTSIGSIRMRPYNGSSAGSVQTTVNFSLNPFTLNDTVTSCRLLTPSAVNVSLAAISAGQLPSSGDEVVAGTTSLKLQCDAGVTVWATLTDATTPSNRSDILTLTGASTATGVGLRIYKNTDSTPLKFGPDSPVKGNENQWQLSTGTETSPSVRLYVKYVNTGEGINPGTVNGISTFTFSYQ
glycan array binding signal (z-score) [1]: -0.155
glycan array binding signal (z-score) [2]: -0.116
glycan array binding signal (z-score) (Gal3S4S(b1-4)GlcNAc): -0.148
glycan array binding signal (z-score) (Gal3S6S(b1-4)GlcNAc): -0.102
glycan array binding signal (z-score) (Gal3S6S(b1-4)GlcNAc6S): -0.013
glycan array binding signal (z-score) (Gal4S(b1-4)GlcNAc): -0.239
glycan array binding signal (z-score) (Gal4S6S(b1-4)GlcNAc): -0.138
glycan array binding signal (z-score) (Gal6S(b1-3)GlcNAc): -0.155
glycan array binding signal (z-score) (Gal6S(b1-3)GlcNAc6S): -0.166
glycan array binding signal (z-score) (Gal6S(b1-4)Glc): -0.252
glycan array binding signal (z-score) (Gal6S(b1-4)Glc6S): -0.195
glycan array binding signal (z-score) (Gal6S(b1-4)GlcNAc): -0.144
glycan array binding signal (z-score) (Gal6S(b1-4)GlcNAc6S): -0.172
glycan array binding signal (z-score) (GalNAc(a1-3)Gal): -0.219
glycan array binding signal (z-score) (GalNAc(a1-3)GalNAc): 0.087
glycan array binding signal (z-score) [3]: -0.192
glycan array binding signal (z-score) [4]: -0.159
glycan array binding signal (z-score) (GalNAc(b1-3)Gal): -0.161
glycan array binding signal (z-score) [5]: -0.234
glycan array binding signal (z-score) [6]: -0.179
glycan array binding signal (z-score) [7]: -0.166
glycan array binding signal (z-score) (GalNAc(b1-3)GalNAc): 1.69
glycan array binding signal (z-score) (GalNAc(b1-4)Gal(b1-4)Glc): -0.154
glycan array binding signal (z-score) (GalNAc(b1-4)GlcNAc): -0.208
glycan array binding signal (z-score) [8]: -0.154
glycan array binding signal (z-score) (GalNAc(b1-6)GalNAc): -0.089
glycan array binding signal (z-score) (Glc(a1-4)Glc): -0.243
glycan array binding signal (z-score) [9]: -0.168
glycan array binding signal (z-score) (Glc(a1-6)Glc(a1-6)Glc): -0.247
glycan array binding signal (z-score) [10]: -0.169
glycan array binding signal (z-score) (Glc(b1-4)Glc): -0.223
glycan array binding signal (z-score) (Glc(b1-6)Glc): -0.214
glycan array binding signal (z-score) (GlcA(b1-3)Gal): -0.244
glycan array binding signal (z-score) (GlcA(b1-3)GlcNAc): -0.177
glycan array binding signal (z-score) (GlcA(b1-6)Gal): -0.247
glycan array binding signal (z-score) [11]: -0.253
glycan array binding signal (z-score) [12]: -0.089
glycan array binding signal (z-score) [13]: -0.148
